Experimental data published in the supplement of paper PMC12067230.
Single values of this set are uncertain.

assay: amyloid nucleation score relative to library mode (yeast Sup35 reporter selection) (log enrichment difference); higher = more amyloid nucleation; sequences are the first 22 residues of the Bri2 peptide extended by up to 12 random residues; conditions: random library (experiment): 1;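 active = nucleation score significantly above 0 at FDR 0.05; inactive = not significantly above 0 or absent from output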
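Note: [psi-pin-] Saccharomyces cerevisiae expressing SupN fusions, induced by 100 µM Cu2SO4, selected 7 d at 30 °C without adenine and uracil, scored by deep sequencing of output versus input.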

Sequence	amyloid nucleation score
EASNCFAIRHFENKFAVETLICQSEALRRDRRFG	0.398
EASNCFAIRHFENKFAVETLICDEDYKTQTIGSR	inactive
EASNCFAIRHFENKFAVETLICPLAKKRARARRG	-0.0755
EASNCFAIRHFENKFAVETLICLCDVKESHVLQR	6.64
EASNCFAIRHFENKFAVETLICVGQDEY	inactive
EASNCFAIRHFENKFAVETLICMNGSVS	2.9
EASNCFAIRHFENKFAVETLICGRFARSTWIRTS	inactive
EASNCFAIRHFENKFAVETLICGPWPERNLIKSA	inactive
EASNCFAIRHFENKFAVETLICGCKESVRPLYAQ	inactive
EASNCFAIRHFENKFAVETLICCLEDLQCSQRAC	inactive
EASNCFAIRHFENKFAVETLICKQVMGSWNSSKG	4.26
EASNCFAIRHFENKFAVETLICGVGRSVLRMGEC	inactive
EASNCFAIRHFENKFAVETLICYT	inactive
EASNCFAIRHFENKFAVETLICYDKYRQHPSGSC	2.39
EASNCFAIRHFENKFAVETLICLRL	inactive
EASNCFAIRHFENKFAVETLICAEESQSSVHYRI	0
EASNCFAIRHFENKFAVETLICTDWNSILVGGEY	inactive
EASNCFAIRHFENKFAVETLICVPVKA	inactive
EASNCFAIRHFENKFAVETLICKLEDG	inactive
EASNCFAIRHFENKFAVETLICYYGRV	1.56
EASNCFAIRHFENKFAVETLICAECCGVSCAGHW	5.71
EASNCFAIRHFENKFAVETLICVDLKCPRTVSVR	inactive
EASNCFAIRHFENKFAVETLICHHGAISKLRCMT	inactive
EASNCFAIRHFENKFAVETLICDDLRSEMLKAWT	inactive
EASNCFAIRHFENKFAVETLICLHDANGSNEMLP	-0.187

Sequence	amyloid nucleation score
EASNCFAIRHFENKFAVETLICAPNLVTMQVCSL	6.11
EASNCFAIRHFENKFAVETLICIHVWCDPSHHVQ	inactive
EASNCFAIRHFENKFAVETLICLLRGSLRVETRW	-0.187
EASNCFAIRHFENKFAVETLICKKYYISLVNGAC	inactive
EASNCFAIRHFENKFAVETLICRSVPIGDMPCSC	inactive
EASNCFAIRHFENKFAVETLICLLETQKPAKLGW	1.61
EASNCFAIRHFENKFAVETLICCHFRPVWRSRY	4.89
EASNCFAIRHFENKFAVETLICLAGENGQSAMGG	inactive
EASNCFAIRHFENKFAVETLICKLSKYLNLFESS	1.78
EASNCFAIRHFENKFAVETLICDRLTRRVLWYGK	4.81
EASNCFAIRHFENKFAVETLICKRGAKRRRSMDS	inactive
EASNCFAIRHFENKFAVETLICPTSHGSTVSVCG	inactive
EASNCFAIRHFENKFAVETLICRCMHSRILSGDL	inactive
EASNCFAIRHFENKFAVETLICGEWVVTGWCLVQ	-0.25
EASNCFAIRHFENKFAVETLICVCGGTSTSFIGR	8.08
EASNCFAIRHFENKFAVETLICVSTMKNRCSMVG	inactive
EASNCFAIRHFENKFAVETLICVAPVHTSCSSMV	inactive
EASNCFAIRHFENKFAVETLICDKSSPMWSWARG	inactive
EASNCFAIRHFENKFAVETLICVRIQTQFLGRPN	3.36
EASNCFAIRHFENKFAVETLICGASNVPRREVPA	inactive
EASNCFAIRHFENKFAVETLICRVVPDVLFLTLS	inactive
EASNCFAIRHFENKFAVETLICCANY	7.25
EASNCFAIRHFENKFAVETLICGPHVVV	-0.431
EASNCFAIRHFENKFAVETLICECKMACGKVLFS	inactive
EASNCFAIRHFENKFAVETLICVWLRRVVWNLS	inactive

same assay, conditions: random library (experiment): 2

Sequence	amyloid nucleation score
EASNCFAIRHFENKFAVETLICLSKYSPRFINTM	inactive
EASNCFAIRHFENKFAVETLICRMRLFLPVYGSR	inactive
EASNCFAIRHFENKFAVETLICYLSYLSQSGFSC	inactive
EASNCFAIRHFENKFAVETLICFGENRE	5.23
EASNCFAIRHFENKFAVETLICDDRFPCS	inactive
EASNCFAIRHFENKFAVETLICAFSSQCCWSCLW	4.63
EASNCFAIRHFENKFAVETLICCYPYSALMNG	5.7
EASNCFAIRHFENKFAVETLICTFAFLCV	inactive
EASNCFAIRHFENKFAVETLICTWVDKY	2.16
EASNCFAIRHFENKFAVETLICRKMSYMGASTDS	0.478
EASNCFAIRHFENKFAVETLICFNIPY	6.01
EASNCFAIRHFENKFAVETLICLVWRYQRCRNRV	inactive
EASNCFAIRHFENKFAVETLICIDWIYGLFCSLA	inactive
EASNCFAIRHFENKFAVETLICFYVLNVVNTRCC	inactive
EASNCFAIRHFENKFAVETLICEKLCGIHAFCYL	0.635
EASNCFAIRHFENKFAVETLICKYIVCSAGPSRR	inactive
EASNCFAIRHFENKFAVETLICYYM	4.41
EASNCFAIRHFENKFAVETLICVIISVKLFSVDV	inactive
EASNCFAIRHFENKFAVETLICMSSRCRYVLLRY	4.83
EASNCFAIRHFENKFAVETLICLVDNGSW	inactive

Sequence	amyloid nucleation score
EASNCFAIRHFENKFAVETLICVVVWADW	inactive
EASNCFAIRHFENKFAVETLICYIWWNMMGSSK	inactive
EASNCFAIRHFENKFAVETLICVL	-0.614
EASNCFAIRHFENKFAVETLICNCS	5.19
EASNCFAIRHFENKFAVETLICYLCLSWFISFDQ	inactive
EASNCFAIRHFENKFAVETLICYMWAKSLWWCNN	inactive
EASNCFAIRHFENKFAVETLICWVTQFGDNKNTG	5.06
EASNCFAIRHFENKFAVETLICEMLCFIRYADGR	inactive
EASNCFAIRHFENKFAVETLICTCTRTQRELRGS	2.46
EASNCFAIRHFENKFAVETLICPSVWCRRRVVYE	inactive
EASNCFAIRHFENKFAVETLICCCRHPLVFGVAR	inactive
EASNCFAIRHFENKFAVETLICTFTYSTVDYTNI	3.23
EASNCFAIRHFENKFAVETLICRGVVLQLRKHYL	inactive
EASNCFAIRHFENKFAVETLICVKMPSYWLYVRA	-0.215
EASNCFAIRHFENKFAVETLICLNVNFRMLMVED	-0.0392
EASNCFAIRHFENKFAVETLICIDSVSQASFCCC	5.59
EASNCFAIRHFENKFAVETLICWIRVFAFMCIIV	inactive
EASNCFAIRHFENKFAVETLICCYMVIDFVHFRF	0.86
EASNCFAIRHFENKFAVETLICASYGVMTHYRQG	2.89
EASNCFAIRHFENKFAVETLICRRRTE	inactive

same assay, conditions: random library (experiment): 3

Sequence	amyloid nucleation score
EASNCFAIRHFENKFAVETLICVCTFSIMSSVMW	1.18
EASNCFAIRHFENKFAVETLICNSPGYGMYDGTT	inactive
EASNCFAIRHFENKFAVETLICGDAVWRVVDNCE	inactive
EASNCFAIRHFENKFAVETLICIDGVYYSLGGAA	4.77
EASNCFAIRHFENKFAVETLICFHYTYCWSTGVS	5.99
EASNCFAIRHFENKFAVETLICWDGSGFMRRHQD	3.59
EASNCFAIRHFENKFAVETLICPCRCGFSCTADG	7.2
EASNCFAIRHFENKFAVETLICYFRTPGDFGINA	1.69
EASNCFAIRHFENKFAVETLICLSARLSVLEMAV	2.99
EASNCFAIRHFENKFAVETLICACPLVRKPDVPR	8.39
EASNCFAIRHFENKFAVETLICRMKKVFTRVVRW	inactive
EASNCFAIRHFENKFAVETLICREA	inactive
EASNCFAIRHFENKFAVETLICGVGQTALWGYGW	inactive
EASNCFAIRHFENKFAVETLICCARRDVGDVG	4.4
EASNCFAIRHFENKFAVETLICLDGMVWE	inactive
EASNCFAIRHFENKFAVETLICQTWHRPV	3.23
EASNCFAIRHFENKFAVETLICWAQTW	4.98
EASNCFAIRHFENKFAVETLICEMLINSLLSLPV	inactive
EASNCFAIRHFENKFAVETLICVPEFLASNDFVL	0.867
EASNCFAIRHFENKFAVETLICRVWIALISRELR	inactive
EASNCFAIRHFENKFAVETLICYMHVLTC	inactive
EASNCFAIRHFENKFAVETLICPVYGSTMWCLNG	7.18
EASNCFAIRHFENKFAVETLICTVEQGSV	inactive
EASNCFAIRHFENKFAVETLICGRASELFRSAAR	inactive
EASNCFAIRHFENKFAVETLICGLGRRLL	inactive
EASNCFAIRHFENKFAVETLICWVTFESLWNRMR	inactive
EASNCFAIRHFENKFAVETLICLSPGQSWCMAN	inactive
EASNCFAIRHFENKFAVETLICDCWMSHTWNRVP	inactive
EASNCFAIRHFENKFAVETLICPPGGSYFTSKSR	inactive
EASNCFAIRHFENKFAVETLICRVSSDL	inactive
